Paper PMC10320511
Results are given in words; binding and its absence hold for the method and conditions named. In cells and extracts the contact can be indirect. Some results given as binding are weak or reduced against the parent protein; the word gives no strength. Tags and fused reporters may be left off the sequences shown.

Tests used:
Assay in all cases: co-IP; V5H6-tagged FRQ (wild type or mutant) pulled down with V5 agarose from Neurospora lysate (cultures in the light, 25 °C); 50 mM Hepes pH 7.4, 137 mM NaCl, 10% glycerol, 0.4% NP-40; 4 °C, 2 h; Western blot with FRQ, FRH, WC-1 and WC-2 antibodies
[1] = biological target: T1, FRQ 311–628, V5H6-tagged (Neurospora crassa) (UniProt P19970)
T1 sequence: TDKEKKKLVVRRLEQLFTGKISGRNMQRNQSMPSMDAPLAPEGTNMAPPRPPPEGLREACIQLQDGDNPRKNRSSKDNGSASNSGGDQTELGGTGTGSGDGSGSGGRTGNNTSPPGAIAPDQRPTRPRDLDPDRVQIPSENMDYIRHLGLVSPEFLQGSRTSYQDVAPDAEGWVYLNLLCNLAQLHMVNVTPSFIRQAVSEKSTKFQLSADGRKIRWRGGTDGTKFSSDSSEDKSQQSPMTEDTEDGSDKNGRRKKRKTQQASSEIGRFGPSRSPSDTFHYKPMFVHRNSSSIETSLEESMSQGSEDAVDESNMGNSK

[2] = biological target: T2, FRQ Δ149–193, V5H6-tagged (Neurospora crassa) (UniProt P19970)
T2 sequence: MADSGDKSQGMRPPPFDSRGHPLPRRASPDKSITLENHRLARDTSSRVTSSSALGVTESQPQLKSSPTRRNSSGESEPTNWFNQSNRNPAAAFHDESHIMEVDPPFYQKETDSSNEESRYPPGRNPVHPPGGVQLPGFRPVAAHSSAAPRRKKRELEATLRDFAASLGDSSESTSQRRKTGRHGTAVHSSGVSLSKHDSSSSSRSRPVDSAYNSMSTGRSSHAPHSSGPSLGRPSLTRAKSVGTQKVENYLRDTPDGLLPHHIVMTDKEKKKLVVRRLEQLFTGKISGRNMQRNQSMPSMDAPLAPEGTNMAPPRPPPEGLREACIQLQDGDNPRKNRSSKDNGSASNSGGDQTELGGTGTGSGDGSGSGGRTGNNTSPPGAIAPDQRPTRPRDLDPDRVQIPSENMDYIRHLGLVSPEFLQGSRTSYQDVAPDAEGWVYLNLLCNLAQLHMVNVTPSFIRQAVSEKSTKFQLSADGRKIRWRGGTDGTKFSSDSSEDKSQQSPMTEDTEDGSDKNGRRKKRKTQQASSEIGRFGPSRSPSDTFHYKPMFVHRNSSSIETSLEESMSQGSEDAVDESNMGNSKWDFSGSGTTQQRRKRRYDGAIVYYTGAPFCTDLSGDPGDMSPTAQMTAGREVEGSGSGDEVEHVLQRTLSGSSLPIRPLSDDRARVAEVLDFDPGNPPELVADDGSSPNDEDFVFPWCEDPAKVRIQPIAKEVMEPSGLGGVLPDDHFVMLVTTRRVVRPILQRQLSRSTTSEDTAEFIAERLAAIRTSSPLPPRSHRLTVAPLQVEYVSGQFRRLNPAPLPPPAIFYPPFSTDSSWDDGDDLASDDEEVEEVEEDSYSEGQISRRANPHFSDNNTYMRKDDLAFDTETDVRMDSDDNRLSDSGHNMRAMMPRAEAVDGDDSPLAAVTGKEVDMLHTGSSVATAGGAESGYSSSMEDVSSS

[3] = biological target: T3, FRQ Δ435–481, V5H6-tagged (Neurospora crassa) (UniProt P19970)
T3 sequence: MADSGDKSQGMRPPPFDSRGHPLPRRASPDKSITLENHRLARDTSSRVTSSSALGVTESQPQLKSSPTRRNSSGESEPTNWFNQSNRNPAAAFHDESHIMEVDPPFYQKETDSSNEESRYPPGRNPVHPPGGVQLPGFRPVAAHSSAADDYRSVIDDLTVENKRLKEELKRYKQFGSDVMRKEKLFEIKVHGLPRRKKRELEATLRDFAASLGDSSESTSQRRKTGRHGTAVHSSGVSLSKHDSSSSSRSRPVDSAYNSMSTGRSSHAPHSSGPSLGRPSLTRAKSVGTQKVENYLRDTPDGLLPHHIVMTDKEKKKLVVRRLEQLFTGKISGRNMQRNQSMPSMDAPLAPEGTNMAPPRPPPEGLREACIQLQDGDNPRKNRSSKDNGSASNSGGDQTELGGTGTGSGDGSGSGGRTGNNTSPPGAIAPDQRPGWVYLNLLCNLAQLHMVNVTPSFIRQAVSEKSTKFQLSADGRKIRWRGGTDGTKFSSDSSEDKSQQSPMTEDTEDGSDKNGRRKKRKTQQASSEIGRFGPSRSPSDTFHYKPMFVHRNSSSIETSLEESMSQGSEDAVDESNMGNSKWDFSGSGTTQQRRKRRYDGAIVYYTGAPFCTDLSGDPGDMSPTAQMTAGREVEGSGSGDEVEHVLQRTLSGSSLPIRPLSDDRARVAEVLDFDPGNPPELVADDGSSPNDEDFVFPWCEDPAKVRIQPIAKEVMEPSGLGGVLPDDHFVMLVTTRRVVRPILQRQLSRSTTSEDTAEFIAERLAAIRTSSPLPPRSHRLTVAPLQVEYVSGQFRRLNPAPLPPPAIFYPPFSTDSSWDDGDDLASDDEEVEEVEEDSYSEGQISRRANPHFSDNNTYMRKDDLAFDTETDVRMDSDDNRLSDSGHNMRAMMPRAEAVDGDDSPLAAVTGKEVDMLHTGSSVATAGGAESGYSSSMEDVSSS

B1: White Collar-2 (WC-2) (protein, UniProt P78714 1-530)
chain: MSHGQPPPGSSMYGFGAMGMGSGMGSGMGSGMGTGMGTGMGTGMSASQMTSDPQDMMSLLDTSVFPGFDGMSMSLDVGDSMSNPFTPVSVPPPLPAGNAGPSHVGVCGGHGAPDQLFSPDDLIATSMSSAGPMIATPTTTTSGPSGGPSSGGGSTLTEFTKRRNWPAKVVEELQDWEHILDANGRIKHVSPSVEPLTGYKPPEIIDLFLRDLIHPDDVGVFTAELNEAIATGSQLRLFYRFRKKDGNWTIFETVGHAHIAAAKFAPNPQNQSPFCQAVFMMARPYPTKNAGLLDSFLEHKIENERLKRRIAELRREEQEEQEESHRTWRMSQEGRSDVTPSDDTATQMGMTPFYIPMNAQADVMMPPPSQPASSLNIALTRENLEGIAGSRPDSIREKMLRYEGNHADTIEMLTGLKYQEGERSHGITTGNASPTLIKGDAGIAIPLDRDPRTGEKKKKIKVAEEYVCTDCGTLDSPEWRKGPSGPKTLCNACGLRWAKKEKKKNANNNNNGGGIGGHNDIHTPMGDHMG
- binding [1]: no binding
- binding [2]: no binding
- binding [3]: binds
